In all, about 310,000 compounds went through this assay and about 2,200 (0.71%) showed an effect of 50% or more. The effect is printed as a negative number. Some of the results follow.

The target in this test is human ether-à-go-go-related gene (hERG) potassium channel (human, UniProt Q12809). The experiment in a line: primary screen, population patch clamp on CHO cells stably expressing hERG.
Chain of human ether-à-go-go-related gene (hERG) potassium channel (Q12809 whole entry, looked up): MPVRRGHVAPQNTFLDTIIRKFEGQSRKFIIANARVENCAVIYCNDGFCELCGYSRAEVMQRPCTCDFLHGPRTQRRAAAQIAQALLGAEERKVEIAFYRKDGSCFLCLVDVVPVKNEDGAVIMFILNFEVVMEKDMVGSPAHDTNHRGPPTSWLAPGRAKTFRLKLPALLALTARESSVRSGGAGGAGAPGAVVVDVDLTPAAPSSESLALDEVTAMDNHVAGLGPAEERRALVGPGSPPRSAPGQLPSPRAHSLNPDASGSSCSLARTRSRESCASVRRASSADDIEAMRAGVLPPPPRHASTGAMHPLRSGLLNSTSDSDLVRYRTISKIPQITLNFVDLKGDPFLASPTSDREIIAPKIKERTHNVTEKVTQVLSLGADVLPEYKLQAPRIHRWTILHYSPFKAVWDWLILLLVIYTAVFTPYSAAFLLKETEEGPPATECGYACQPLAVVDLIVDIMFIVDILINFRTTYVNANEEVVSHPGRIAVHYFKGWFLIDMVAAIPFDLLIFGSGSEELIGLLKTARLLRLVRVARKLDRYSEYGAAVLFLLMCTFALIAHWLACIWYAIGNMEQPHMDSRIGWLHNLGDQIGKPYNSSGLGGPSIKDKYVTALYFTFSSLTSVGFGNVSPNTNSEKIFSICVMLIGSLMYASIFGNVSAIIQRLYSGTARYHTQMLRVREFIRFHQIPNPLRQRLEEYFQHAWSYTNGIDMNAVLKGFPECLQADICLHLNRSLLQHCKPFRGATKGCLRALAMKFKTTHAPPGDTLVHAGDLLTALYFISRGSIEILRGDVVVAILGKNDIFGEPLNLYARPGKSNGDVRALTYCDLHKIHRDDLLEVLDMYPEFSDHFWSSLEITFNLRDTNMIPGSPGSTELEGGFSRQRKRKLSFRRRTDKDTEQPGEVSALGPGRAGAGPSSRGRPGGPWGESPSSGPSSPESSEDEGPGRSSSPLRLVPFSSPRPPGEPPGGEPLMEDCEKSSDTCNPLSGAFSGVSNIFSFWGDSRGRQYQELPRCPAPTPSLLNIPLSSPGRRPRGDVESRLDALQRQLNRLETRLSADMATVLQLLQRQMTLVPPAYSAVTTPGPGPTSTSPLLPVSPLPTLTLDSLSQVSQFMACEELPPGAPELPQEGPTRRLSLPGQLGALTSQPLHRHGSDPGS
Turning to `CSCCC(=O)N1C(C)CCCC1C(=O)O` (centres unmarked), the “hERG current change (%, negative = inhibition) at 1uM” value came to 15.1%.

As to `CCOC(=O)c1c(C)n(Cc2ccco2)c2ccc(O)cc12`, the “hERG current change (%, negative = inhibition) at 1uM” value is on record as 5.71%.

As for `Cc1cccc(CC2CC(=O)N(c3ccc(C)cc3Br)C2=O)c1` (centres unmarked), the “hERG current change (%, negative = inhibition) at 1uM” value turned out to be 16.5%.

As for `CN(C)c1ccc(CN(CC2CCCO2)C(=O)c2cccs2)cc1` (centres unmarked), the “hERG current change (%, negative = inhibition) at 1uM” value is on record as 2.93%.

Turning to `C[C@@]1([C@@H](NP(=O)(c2ccccc2)c2ccccc2)c2ccccc2)C[C@H]1CCO`, the “hERG current change (%, negative = inhibition) at 1uM” value came to 15.9%.

Turning to `COCC1CCCCN1C(=O)c1cc(COc2ccc3ncccc3c2)on1` (centres unmarked), the “hERG current change (%, negative = inhibition) at 1uM” value was -16%.

Consider `Cc1ccc2nc(SCC(=O)NC3CCCC3)nc(=O)n2c1`, for which the “hERG current change (%, negative = inhibition) at 1uM” value is given as -3.54%.

Regarding `O=C(NNc1ccc(-c2csnn2)cc1)c1ccccc1C(F)(F)F`, the “hERG current change (%, negative = inhibition) at 1uM” value is 9.16%.

Consider `O=C(CNCc1cccc2ccccc12)Nc1ccccc1[N+](=O)[O-]`, for which the “hERG current change (%, negative = inhibition) at 1uM” value was determined as 1.68%.

Take `COc1ccc(NC(=O)CN(C)C(=O)c2ccccc2OCC(=O)Nc2cccc(C(F)(F)F)c2)cc1`: the “hERG current change (%, negative = inhibition) at 1uM” value is -10.5%.

Regarding `O=C(CSc1nc2ccccc2o1)N/N=C/c1ccccc1`, the “hERG current change (%, negative = inhibition) at 1uM” value was 1.92%.

In the case of `O=C(O)CC(=O)Nc1ccccc1`, the “hERG current change (%, negative = inhibition) at 1uM” value is 16.8%.

As for `CCOC(=O)C1=C(C)NC(C)=C(C(=O)OCC)C1c1cc(N)ccc1OC(F)F`, the “hERG current change (%, negative = inhibition) at 1uM” value is recorded as 9.13%.

`COc1ccc(NC(=O)CCCC(=O)OCC(=O)c2cccc(OC)c2)cc1`: the “hERG current change (%, negative = inhibition) at 1uM” value is listed as 15.9%.

On to `COc1ccc(CNC(=O)c2n[nH]c3ccccc23)cc1OC`, for which the “hERG current change (%, negative = inhibition) at 1uM” value was 6.2%.

As for `CNC(=O)NC(=O)Cn1cnc2sc(-c3ccccc3)cc2c1=O`, the “hERG current change (%, negative = inhibition) at 1uM” value is given as 8.43%.

`O=c1c2cc(F)ccc2[nH]c(=S)n1Cc1ccc(F)cc1`: the “hERG current change (%, negative = inhibition) at 1uM” value came to 13.3%.

`CCN(CC)CCn1c(NCc2nc3ccccc3n2Cc2ccccc2)nc2ccccc21`: the “hERG current change (%, negative = inhibition) at 1uM” value was -8.2%.

Turning to `COc1ccc(OC)c(-c2csc(NC(=O)c3ccc4c(c3)OCO4)n2)c1`, the “hERG current change (%, negative = inhibition) at 1uM” value was -1.86%.

Turning to `COc1ccc2nc(Nc3ccccc3OC)sc2c1`, the “hERG current change (%, negative = inhibition) at 1uM” value is listed as 12.2%.

Regarding `Cc1nn(CCc2n[nH]c(=S)n2C2CCCCC2)c(C)c1Br`, the “hERG current change (%, negative = inhibition) at 1uM” value stood at 5.89%.

Take `CC(C)CC(C(=O)O)N1C(=O)C2C3c4ccccc4C(c4ccccc43)[C@@H]2C1=O` (some centres unmarked): the “hERG current change (%, negative = inhibition) at 1uM” value stood at 13.9%.

Consider `Oc1cc(O)cc(-c2cc3ccc(O)cc3o2)c1`, for which the “hERG current change (%, negative = inhibition) at 1uM” value is given as 19.7%.

On to `CCN(CC)CCCOC(=O)C(OC(C)C)(c1ccccc1)c1ccccc1.Cl`, for which the “hERG current change (%, negative = inhibition) at 1uM” value was -10.6%.

For the compound `O=C(NCCC1=CCCCC1)c1cc(S(=O)(=O)N2CCCCC2)ccc1Cl`, the “hERG current change (%, negative = inhibition) at 1uM” value was 3.73%.

As to `COc1ccccc1Oc1coc2c(CN(C)C)c(O)ccc2c1=O`, the “hERG current change (%, negative = inhibition) at 1uM” value is -0.221%.

Regarding `Cc1ccc(NNC(=O)c2cccs2)cc1Cl`, the “hERG current change (%, negative = inhibition) at 1uM” value was 13%.

For the compound `Cn1c(=O)n(CC(=O)Nc2cccnc2)c2ccccc21`, the “hERG current change (%, negative = inhibition) at 1uM” value was 4.4%.

Regarding `CCCn1c(SCC(=O)Nc2ccc(Cl)cc2)n[nH]c1=O`, the “hERG current change (%, negative = inhibition) at 1uM” value is 8.86%.

In the case of `NC(=O)c1cn(C2OC(CO)C(O)C2O)c2ncnc(N)c12.O` (centres unmarked), the “hERG current change (%, negative = inhibition) at 1uM” value is listed as 5.08%.

Turning to `O=c1[nH]c(SCc2cccc(F)c2)nc2c1CCCC2`, the “hERG current change (%, negative = inhibition) at 1uM” value was 3.07%.

As for `Cc1ccc(NC(=O)NC(=O)c2cnccc2C(F)(F)F)c(C)c1`, the “hERG current change (%, negative = inhibition) at 1uM” value is -5%.

On to `CCSc1nnc(NC(=O)[C@@H](NC(=O)c2cc(OC)cc(OC)c2)C(C)C)s1`, for which the “hERG current change (%, negative = inhibition) at 1uM” value stood at 2.3%.

With `CCOC(=O)C1CCCN(c2c(N3CCN(c4cccc(Cl)c4)CC3)c(=O)c2=O)C1` (centres unmarked), the “hERG current change (%, negative = inhibition) at 1uM” value was -54.1%.

In the case of `O=C(N/N=C/c1ccco1)c1ccccc1OCc1ccccc1Cl`, the “hERG current change (%, negative = inhibition) at 1uM” value was -9.15%.

Regarding `COc1cc(C(=O)NCCN2C(=O)S/C(=C\c3cccs3)C2=O)cc(OC)c1OC`, the “hERG current change (%, negative = inhibition) at 1uM” value is on record as -4.49%.

Consider `CCCCn1c(NC(C)CC)nc2c1c(=O)[nH]c(=O)n2C` (centres unmarked), for which the “hERG current change (%, negative = inhibition) at 1uM” value is reported as 0.828%.

Consider `O=c1oc2cc(OCc3ccc(F)cc3F)ccc2cc1-c1ccccn1`, for which the “hERG current change (%, negative = inhibition) at 1uM” value is given as 12.9%.

With `Cc1ccccc1Cn1ccc(NC(=O)c2onc(C)c2Cl)n1`, the “hERG current change (%, negative = inhibition) at 1uM” value is reported as 11.7%.

As for `COc1cc(CN2CCNC(=O)C2CC(=O)N2CCCCO2)cc(OC)c1` (centres unmarked), the “hERG current change (%, negative = inhibition) at 1uM” value is 11.2%.

In the case of `CN(C)CCCN(CCCN(C)C)C(=S)Nc1ccc(S(=O)(=O)N2CCOCC2)cc1`, the “hERG current change (%, negative = inhibition) at 1uM” value is reported as 8.16%.

As for `CCOC(=O)C1=C(C)N(c2ccc(C)c(C)c2)C(=O)/C1=C\c1ccco1`, the “hERG current change (%, negative = inhibition) at 1uM” value was 2.1%.

As for `Cc1ccc(CSCCNS(=O)(=O)c2ccc([N+](=O)[O-])cc2)cc1`, the “hERG current change (%, negative = inhibition) at 1uM” value worked out at 14%.

Consider `CC(C)(C)NC(=O)COC(=O)c1ccc(F)cc1Cl`, for which the “hERG current change (%, negative = inhibition) at 1uM” value is 12.6%.

In the case of `C/C(=C\c1ccccc1)CN1CCC(C(=O)N2CCC(C)CC2)CC1.O=C(O)C(=O)O`, the “hERG current change (%, negative = inhibition) at 1uM” value is -35.2%.

Regarding `CC(C)CN(C(=O)COC(=O)c1ccc(Cl)c(N)c1)c1c(N)n(Cc2ccccc2)c(=O)[nH]c1=O`, the “hERG current change (%, negative = inhibition) at 1uM” value was -14.3%.

As to `O=C(C1=C[C@H](c2csc3ccccc23)C[C@H](OCc2ccc(CO)cc2)O1)N1CCOCC1`, the “hERG current change (%, negative = inhibition) at 1uM” value is -15.8%.

As for `COc1ccc(Cc2nc3ccc(C(=O)NCCCSC)cc3o2)cc1OC`, the “hERG current change (%, negative = inhibition) at 1uM” value was 8.46%.

As to `COc1ccccc1-c1cc(C(=O)N/N=C/c2ccoc2)c2ccccc2n1`, the “hERG current change (%, negative = inhibition) at 1uM” value came out at 17.8%.

In the case of `CC(=O)C1=C(C)NC(SCC(=O)Nc2nc3ccccc3s2)=C(C#N)C1c1ccc(Cl)cc1` (centres unmarked), the “hERG current change (%, negative = inhibition) at 1uM” value was 6.27%.

Turning to `O=C(O)c1ccc(CN(c2ccccc2)S(=O)(=O)c2ccccc2)cc1`, the “hERG current change (%, negative = inhibition) at 1uM” value is given as 23%.

`Cc1cc(N2CCCCC2)nc2ccc(NC(=O)CCC(=O)NCCC(C)C)cc12`: the “hERG current change (%, negative = inhibition) at 1uM” value is on record as -11.5%.

On to `Cc1cc(C)n(C(=O)c2ccc(S(=O)(=O)N3CCOCC3)cc2)n1`, for which the “hERG current change (%, negative = inhibition) at 1uM” value worked out at 0.4%.

Take `COc1ccc(S(=O)(=O)N2CCN=C2SCc2cccnc2)cc1`: the “hERG current change (%, negative = inhibition) at 1uM” value is -2.53%.

As for `COCCN1C(=O)/C(=C/c2ccc(N3CCCC3)cc2)SC1=S`, the “hERG current change (%, negative = inhibition) at 1uM” value is 7.89%.

In the case of `CN(C(=O)COC(=O)c1cccc(S(=O)(=O)N2CCCCCC2)c1)C1CCS(=O)(=O)C1` (centres unmarked), the “hERG current change (%, negative = inhibition) at 1uM” value is 1.3%.

The values are drawn from article PMC4336329 (PLoS ONE, 2015).
